# Measured values: paper PMC4336329 (PLoS ONE, 2015)
# The whole screen tested about 310,000 compounds, of which about 14,000 (4.5%) showed an effect of 50% or more. Effects have a minus sign here. Some of the results follow.
# Target: human ether-à-go-go-related gene (hERG) potassium channel (human, UniProt Q12809)
# Experiment: primary screen, population patch clamp on CHO cells stably expressing hERG
# 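Further: peak tail current of the secondary pulse compared with the same well before compound.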
# Chain of human ether-à-go-go-related gene (hERG) potassium channel (Q12809 whole entry, looked up): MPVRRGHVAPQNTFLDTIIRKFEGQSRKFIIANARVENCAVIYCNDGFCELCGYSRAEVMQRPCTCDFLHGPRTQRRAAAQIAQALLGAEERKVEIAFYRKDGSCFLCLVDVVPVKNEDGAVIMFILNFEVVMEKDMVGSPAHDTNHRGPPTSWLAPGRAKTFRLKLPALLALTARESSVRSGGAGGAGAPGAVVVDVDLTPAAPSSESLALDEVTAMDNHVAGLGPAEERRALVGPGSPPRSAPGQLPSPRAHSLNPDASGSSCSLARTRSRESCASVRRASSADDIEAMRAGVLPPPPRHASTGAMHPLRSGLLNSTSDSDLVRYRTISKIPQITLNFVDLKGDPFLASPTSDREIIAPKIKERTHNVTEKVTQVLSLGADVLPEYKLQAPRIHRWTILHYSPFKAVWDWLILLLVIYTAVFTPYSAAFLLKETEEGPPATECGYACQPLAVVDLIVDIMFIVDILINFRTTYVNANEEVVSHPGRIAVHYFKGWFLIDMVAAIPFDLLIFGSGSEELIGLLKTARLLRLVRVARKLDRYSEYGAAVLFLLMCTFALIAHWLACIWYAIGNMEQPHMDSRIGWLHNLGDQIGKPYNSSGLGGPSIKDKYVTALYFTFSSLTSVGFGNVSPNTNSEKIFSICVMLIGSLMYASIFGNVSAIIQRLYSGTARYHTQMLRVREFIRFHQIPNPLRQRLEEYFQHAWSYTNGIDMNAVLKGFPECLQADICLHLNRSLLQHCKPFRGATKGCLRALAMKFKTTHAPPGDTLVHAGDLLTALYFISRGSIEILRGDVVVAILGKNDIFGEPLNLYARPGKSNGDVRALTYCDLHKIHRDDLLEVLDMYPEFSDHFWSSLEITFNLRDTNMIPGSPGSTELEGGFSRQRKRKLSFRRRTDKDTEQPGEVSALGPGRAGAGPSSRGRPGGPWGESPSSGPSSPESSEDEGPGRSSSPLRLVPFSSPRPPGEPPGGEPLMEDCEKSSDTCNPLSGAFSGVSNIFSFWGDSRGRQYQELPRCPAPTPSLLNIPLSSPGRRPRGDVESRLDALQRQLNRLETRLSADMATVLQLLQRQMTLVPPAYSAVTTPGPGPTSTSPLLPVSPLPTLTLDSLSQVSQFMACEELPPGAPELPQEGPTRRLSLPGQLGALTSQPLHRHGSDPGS
row,SMILES,"hERG current change (%, negative = inhibition) at 10uM [%]"
1,CC(C)(C)OC(=O)CC[C@@H](C(=O)N1CCN(C(=O)OC(C)(C)C)CC1)n1cc(C(Cc2ccc(O)cc2)NC(=O)OC(C)(C)C)nn1 (some centres unmarked),14.2
2,COc1ccc(NC(=O)c2cc3c(=O)n(C)c4ccccc4c3n2C)cc1Cl,5.28
3,COc1ccc(Cc2nnc(NC(C)=O)s2)cc1,7.23
4,COCCn1c(SCC(=O)Nc2ccc(C(C)=O)cc2)nnc1-c1ccco1,-16.6
5,CC(=O)NCc1ccc(S(=O)(=O)N2CCCN(C)CC2)cc1.Cl,17.1
6,CC1SCC(=NOCc2ccccc2)CS1 (centres unmarked),6.57
7,CCCCC[C@H](O)/C=C/C1=C(CCCCCCC(=O)O)C(=O)CC1,17.9
8,COc1cccc2c1cc1c(=O)n(CC(=O)NC3CCCCC3)nc(C)n12,-1.91
9,COc1ccccc1NC(=O)C(C)OC(=O)Cn1cnc2c1c(=O)n(C)c(=O)n2C (centres unmarked),7.78
10,COCCC1CCCCN1C(=O)c1cc(COc2cccc(C(C)=O)c2)on1 (centres unmarked),-4.93
11,COc1ccc(O)c(CN2CCCC(N3CCc4ccccc4C3)C2)c1 (centres unmarked),-46.6
12,NC(=O)C1CCN(S(=O)(=O)c2cc3c4c(c2)CCN4C(=O)CC3)CC1,10.4
13,CC(C)(C)NCC(=O)c1c[nH]c2ccccc12,-2.11
14,Cc1ccc(S(=O)(=O)N(C)c2nc3ccccc3n3c(C(C)C)nnc23)cc1,-28.1
15,CN(CC(=O)OCC(=O)NCc1ccccc1)S(=O)(=O)c1ccc(Cl)cc1,-6.5
16,CC1=NNC(=O)C1CCC(=O)N/N=C(/C)c1ccc([N+](=O)[O-])cc1 (centres unmarked),0.0577
17,CCn1c2ccccc2c2cc(/C=N/NC(=O)c3ccncc3)ccc21,17.9
18,COc1cccc(OC)c1C(=O)Nc1ccc(CN2CCOCC2)cc1,0.597
19,CCN1CCN(c2nc(NCCO)c3ccccc3n2)CC1.Cl,-16.7

row,SMILES,"hERG current change (%, negative = inhibition) at 10uM [%]"
1,O=C(Nc1ccccc1)c1cccc(=O)o1,21.2
2,O=C(NCCCn1ccnc1)c1ccc(-c2ccccc2)cc1,-21.6
3,COc1ccc(/C=C2\N=C(C)OC2=O)cc1OC,16.5
4,CC1Cc2ccccc2N1C(=O)c1ccc(N2CCCC2)c([N+](=O)[O-])c1 (centres unmarked),-3.31
5,COc1cc(C(=O)OCC(=O)Nc2c(C)n(C)n(-c3ccccc3)c2=O)c([N+](=O)[O-])cc1OC,7.15
6,CCOC(=O)c1c(-c2ccccc2)csc1NC(=O)c1cc2ccccc2oc1=O,-10.4
7,COc1ncccc1C(=O)N1CCC(n2nccc2NC(=O)CC(C)C)CC1,16.4
8,COc1ccc(OC)c(NC(=O)N2C[C@H]3C[C@@H](C2)c2cccc(=O)n2C3)c1,-8.26
9,O=C(CCc1ccccc1)NNC(=O)c1ccccc1Br,1.93
10,CCOc1cc(S(=O)(=O)Nc2ccc(CC)cc2)ccc1Cl,-11.3
11,COc1cc(NC(=O)Nc2cccc([N+](=O)[O-])c2)cc(OC)c1,1.42
12,O=C(c1nc(-c2ccccc2)n(-c2ccccc2)n1)N1CCN(S(=O)(=O)c2ccccc2)CC1,-41.2
13,CC(C)NC(=O)C1(c2ccccc2)CCOCC1,3.55
14,Cc1cc(C)c(C)c(S(=O)(=O)Nc2ccc3cn[nH]c3c2)c1C,3.26
15,O=C(CCC1CCCCC1)Nc1ccccc1O,3.23
16,CCCn1nnc(NC(=O)c2ccc3ccccc3c2)n1,-1.9
17,COc1ccc(C)cc1S(=O)(=O)Nc1ccc2c(c1)N(C(C)=O)CCC2,11
18,Cc1ccc(C(C)(C)C)c(OCCCCN2CCCC2)c1,-19.9
19,COc1ccccc1N1CC(C)(C)C(=O)N(C(=O)c2ccc(C)cc2)C1=S,2.13

row,SMILES,"hERG current change (%, negative = inhibition) at 10uM [%]"
1,CN(Cc1ccccc1F)C(=O)C(Cc1ccccc1)NC(=O)c1ccccc1 (centres unmarked),-5.82
2,Fc1c(F)c(F)c(CSc2nc3ccccc3[nH]2)c(F)c1F,-0.406
3,OCCCNC(=S)Nc1ccc(Nc2ccccc2)cc1,10.5
4,COc1ccccc1NC(=O)COC(=O)CCS(=O)(=O)c1ccc(C)cc1,23.4
5,O=c1cc(-c2ccccc2)cc(-c2ccccc2)n1CCO,-21.5
6,Cc1onc(-c2ccccc2)c1C(=O)N/N=C/c1ccccc1OC(C)C,4.5
7,Cc1cccc(Cn2c(NCCO)nc3c2c(=O)n(C)c(=O)n3C)c1,-11
8,CCc1ccc(C2=NN(C(C)=O)C(c3ccco3)C2)cc1 (centres unmarked),-9.61
9,C#Cc1ccc([C@@H]2C=C(C(=O)N3CCN(Cc4ccc5c(c4)OCO5)CC3)O[C@H](OCC)[C@H]2CCCO)cc1,-15.8
10,CC1C=CCC2C(=O)N(c3cccc(C(=O)N4CCCCCC4)c3)C(=O)C12 (centres unmarked),-3.15
11,O=C1N=C(N2CCOCC2)CS1,-8.06
12,COc1cccc(C(=O)Nc2ccc3c(c2)C(=O)c2ccccc2C3=O)c1,16.5
13,CCOC(=O)c1nnn(-c2nonc2N)c1-c1ccccc1Cl,15.3
14,Cc1cc(Cc2c(O)[nH]c(=S)[nH]c2=O)ccc1OC(C)C,13.8
15,CC(C)CC(=O)Nc1cccc(NC(=O)CC(C)C)n1,5.81
16,C=CCN(c1ccccc1)S(=O)(=O)c1cccc(C(=O)NC2CCC(O)CC2)c1 (centres unmarked),-7.48
17,Cc1ccc(C(=O)O)cc1NC(=S)NC(=O)c1ccc([N+](=O)[O-])c(C)c1,32.3
18,COc1cccc(CNC(=O)CSc2nc3c(oc4ccccc43)c(=O)n2CC2CCCO2)c1 (centres unmarked),-36.4
